Screen size: about 150,000 compounds; about 540 (0.36%) showed an effect of 50% or more. This is one part of the list.
Each molecule was assayed on Plasmodium falciparum (assay: Primary screen in NF54 nanoGlo assay, in single point, at 2uM, 72h; a lower Z score goes with more inhibition). Conditions: timepoint 72 hour.
Type: functional, Erythrocyte

| Compound | % Inhibition [%] | Z score |
| --- | --- | --- |
| Cc1c(Cl)ccc2c1NC(=O)[C@]21N[C@@H](Cc2ccccc2)[C@H]2C(=O)N(Cc3ccccc3)C(=O)[C@H]21 | 10 | -1.29 |
| Cc1ccccc1N1CCN(C(=O)c2ccc3c(c2)OCCO3)CC1 | 4 | -0.48 |
| Cc1cccc(C(=O)NC(C)C(C)C(=O)O)c1Cl (stereo not given) | 3 | -0.51 |
| O=C(Nc1nccs1)c1ccc2c(c1)C(=O)N(CCc1ccccc1)C2=O | 5 | -0.88 |
| CN1CCN(C(=O)N2CCCC[C@@H]2CCc2cccc(O)c2)CC1 | -11 | 1.85 |
| Cc1cccc(C)c1OCC(=O)N(C)C1(C#N)CCC1 | -13 | 1.69 |
| CN(C[C@H]1COc2ccccc2O1)C(=O)c1ccc2ncccc2c1 | 9 | -1.68 |
| O=S(=O)(c1ccccc1)[C@H]1CCN(S(=O)(=O)C2CC2)C1 | -10 | 1.79 |
| CCOCC(=O)N1CCc2n[nH]c(=O)n2CC1 | -13 | 1.55 |
| Cc1c(NC(=O)N2CCOC[C@@H](CO)C2)cccc1N1CCCC1 | -10 | 1.43 |
| CS(=O)(=O)c1ccc2nc(NC(=O)c3cc4c(s3)CCC4)sc2c1 | -6 | 1.18 |
| O=C(Cc1cn2ccsc2n1)N1CCc2ccccc2C1 | -13 | 1.11 |
| Cc1nnc(Oc2ccc(-n3ncc4ccccc43)cc2)nc1C | -4 | 0.49 |
| CC(Cc1cccc(Cl)c1)C(=O)N1CCN2C(=O)NCC2C1 (stereo not given) | -14 | 2.04 |
| CCCCS(=O)(=O)NCc1csc(N)n1 | -5 | 0.58 |
| Cn1cncc1CN1CCC[C@@H]1C(F)F | -9 | 1.08 |
| COCC1(O)CN(S(=O)(=O)C2CCC(C(F)(F)F)CC2)C1 (stereo not given) | 32 | -3.57 |
| CCCC[C@H](CC)CNS(=O)(=O)c1ccccc1 | -9 | 1.2 |
| O=C(Nc1ccc(C2CC2)cn1)c1cncc(N2CCCC2)n1 | -2 | 0.23 |
| CCCN1C(=O)c2ccccc2C(C(=O)N2CCN(CC)CC2)C1c1cc(OC)c(OC)c(OC)c1 (stereo not given) | -13 | 2.36 |
| CO[C@@H]1[C@H]2OC(C)(C)O[C@H]2O[C@@H]1C(O)Cn1c(=O)n(CC(O)[C@H]2OC3OC(C)(C)OC3[C@H]2OC)c2ccccc21 (stereo not given in full) | -45 | 5.32 |
| CN1CC[C@@H]2CN(C(=O)C(C)(C)Oc3ccc4c(c3)CCC4)C[C@]2(C(=O)O)C1 | -6 | 1 |

| Compound | % Inhibition [%] | Z score |
| --- | --- | --- |
| CO[C@H]1CCOC[C@@H]1NC(=O)c1cnn2ncccc12 | -12 | 1.91 |
| Cc1oc(C(=O)N2CC3(CCCC3)c3ccccc32)cc1S(=O)(=O)N(C)C | 45 | -6.46 |
| O=C(Cc1csc(-c2ccoc2)n1)Nc1cnn(CCN2CCCCC2)c1 | -14 | 2.56 |
| CC(C)CCC(=O)N1CCC(C(=O)O)C2CCCC21 (stereo not given) | -4 | 0.68 |
| CCC(C)C(C)(O)CNC(=O)C1CC1(Cl)Cl (stereo not given) | 1 | -0.13 |
| Nc1ccc2[nH]c(C(F)(F)F)nc(=O)c2c1 | -13 | 1.36 |
| O=C(c1cc(Cl)c[nH]1)N1CC(CO)C1 | -20 | 2.89 |
| CC(C)Cn1ccnc1CNS(=O)(=O)N1CCCCC1 | -10 | 1.34 |
| CCOc1ccc(NC(=O)[C@@H]2CCCN2C(=O)c2cccs2)cc1S(=O)(=O)N1CCOCC1 | -12 | 2.28 |
| Cc1ccc(OCCOCCN(C)C)c(Cl)c1 | 1 | -0.12 |
| Cc1cc(C(=O)NC(C)C)ccc1N(C)S(C)(=O)=O | -4 | 0.84 |
| O=C1c2ccccc2C(=O)N1CC#CCN1CCCCC1 | -7 | 1.3 |
| CC(C)n1nnnc1-c1ccccc1NC1CCCCC1 | 3 | -0.32 |
| NC(=O)COc1cccc2c1CCCN2 | 16 | -2.14 |
| Cc1cc(C(=O)N2CCC[C@H]2c2cccs2)ncc1C(N)=O | -11 | 1.93 |
| C[C@H](Oc1ccccc1)C(=O)Nc1c(C(=O)Nc2ccc3c(c2)OCO3)oc2ccccc12 | 0 | -0.02 |
| Cc1noc(C)c1[C@@H](C)C(=O)Nc1sccc1S(C)(=O)=O | -19 | 2.96 |
| COc1cccc(COC[C@@H](O)CN2CCOCC2)c1 | -10 | 1.42 |
| COC(=O)CN(C)C(=O)C[C@]1(c2ccccc2F)CC(=O)N(C2CCCC2)C1=O | -6 | 0.8 |
| O=C(c1cc(-c2cccc3ccccc23)nc2ccccc12)N1CCN(C(c2ccccc2)c2ccccc2)CC1 | 0 | 0.07 |
| COc1ccccc1NC(=O)Cn1c(-c2nc(-c3ccc(F)cc3)no2)cccc1=O | -12 | 1.16 |
| OCCNC1CC(c2ccccc2)Oc2ccccc21 (stereo not given) | 7 | -1.08 |

| Compound | % Inhibition [%] | Z score |
| --- | --- | --- |
| C[C@@H](Cc1cnccn1)NC(=O)CCCN1CCCC1=O | -4 | 0.52 |
| O=C1COc2ccc(S(=O)(=O)NC3CCCCCC3)cc2N1 | -12 | 1.81 |
| CCn1ccc(NS(=O)(=O)c2ccc(C(C)(C)C)nc2)n1 | -6 | 0.69 |
| O=C(CCc1nnc(C2CCCC2)o1)NC[C@]12C[C@H]1COC21CCC1 | 1 | -0.12 |
| O=C(Nc1cccc(Br)c1)Nc1cccc(-c2cc3cc(Cl)ccc3[nH]2)c1 | 4 | -0.44 |
| CS(=O)(=O)N1CCN(C(=O)CN(Cc2ccccc2)C2CCCCC2)CC1 | 9 | -1.67 |
| CC(CCc1cccn1C)NC(=O)[C@H](O)c1ccccc1Cl (stereo not given in full) | -4 | 0.71 |
| Cn1ccnc1[C@H](NC(=O)CC1(O)CCCC1)c1ccc(F)cc1F | -4 | 0.69 |
| CC1=C(C)CN(S(=O)(=O)c2ccc(N3CCCC3=O)cc2)CC1 | -11 | 1.78 |
| COCCN1CC(=O)N[C@H]2CN(c3cc(C4CC4)ncn3)C[C@@H]2OCc2cccc(c2)Oc2cncc(c2)C1=O | -21 | 4.08 |
| CC1CC(NC(=O)c2ccncc2Cl)CN1Cc1ccccc1 (stereo not given) | 6 | -0.71 |
| N#Cc1ccccc1CN1CCC[C@H](N2CCCC2)C1=O | -11 | 1.41 |
| Cc1noc(C)c1S(=O)(=O)N(CCc1nccs1)C(C)C | 6 | -0.77 |
| CC(C)(C)OC(=O)N[C@H](c1ccccc1)C(C)(C)C(=O)O | -5 | 0.49 |
| CCOc1ccc(NCC(=O)n2nc(C)cc2C)cc1 | 2 | -0.38 |
| COc1ccc(F)c(F)c1C(=O)NC[C@@H](C(C)C)N(C)C | -12 | 1.62 |
| COC(=O)c1ccc(S(C)(=O)=O)cc1NC(=O)COC(C)C | -1 | 0.29 |
| O=C(Cc1c[nH]c2ccccc12)Nc1nc(-c2c(F)cccc2F)cs1 | -8 | 0.68 |
| Cc1cccc(C(=O)N2CCC[C@H](n3ccnn3)C2)n1 | -19 | 3.49 |
| COC1CCN([C@H]2CCC[C@H]2N(C)C(=O)Nc2cc(Cl)ccc2N(C)C)C1 (stereo not given in full) | -3 | 0.49 |
| C[C@H]1CC(=O)Nc2ccccc2N1C(=O)CNc1cccc(OCc2ccc(F)cc2)c1 | -5 | 0.63 |
| Clc1cccc(Cc2nc(-c3ccc4nncn4c3)no2)c1 | -5 | 0.89 |

| Compound | % Inhibition [%] | Z score |
| --- | --- | --- |
| CCC1CCC(N[C@H]2CCS(=O)(=O)C2)CC1 (stereo not given in full) | -3 | 0.35 |
| Cc1cnc(NC(=O)[C@H]2CC2(F)F)s1 | 8 | -1.02 |
| Cc1cc(CN2CCCn3nc(CN4CC[C@H](F)C4)cc3C2)oc1C | 12 | -1.46 |
| CCOC1(OCC)[C@@H](c2ccccc2)C(C#N)(C#N)C1(OCC)OCC | -33 | 3.83 |
| C=CCNC(=O)c1ncc(Br)cc1Br | -11 | 1.29 |
| CC(NC(=O)N1CCC[C@@H]1CO)c1cccc(-n2cccn2)c1 (stereo not given in full) | 5 | -0.74 |
| O=C(NC1CCOCC1)c1ccc(NCc2cccc(F)c2F)cc1 | -5 | 0.46 |
| O=C(Cn1c(=O)ccc2cc(S(=O)(=O)N3CCCC3)ccc21)NCc1ccco1 | -1 | 0.25 |
| COC[C@@H](c1ccccn1)N(C)C(=O)CN1CCCCC1=O | -16 | 2.22 |
| O=c1c2c(ncn1C[C@H]1CCC3(CCCCC3)O1)CCC2 | -1 | 0.12 |
| CC(C)(C)OC(=O)N1CCC(N(CCCO)Cc2ccccn2)CC1 | -7 | 1.02 |
| CCCc1cc(=O)n(-c2ccc(C(=O)N(C)C[C@H]3CC(=O)N(CC)C3)cc2)[nH]1 | -11 | 1.99 |
| C[C@@H](Cc1ccc2c(c1)OCO2)CN1CCC2(CC1)N=C(N(C)C)NC2=O | -14 | 2.46 |
| COc1cccc2nc(C[C@H]3CN(C(=O)CC(C)C)CC[C@H]3CC(=O)O)[nH]c12 | -11 | 1.37 |
| CC(C)Cn1ccnc1NC(=O)Cc1cncc(O)c1 | 5 | -0.95 |
| COc1ccc(OC)c(-c2csc(NC(=O)CCCOc3ccccc3)n2)c1 | -13 | 1.33 |
| O=C(CCC1CCN(C(=O)c2cccc(F)c2O)CC1)NC1CC1 | -15 | 1.45 |
| Cc1noc(C)c1CS(=O)(=O)CC(=O)N[C@@H](C)c1ccccc1 | 8 | -1.04 |
| COc1ccc2[nH]c3c(c2c1)CCN(C(=O)NC1CCCC1)[C@@H]3c1ccc(C)cc1 | 18 | -2.12 |
